Assay results as given in PubChem BioAssay AID624173 (National Center for Advancing Translational Sciences (NCATS), 2012).
In all, about 410,000 compounds went through this assay and about 490 (0.12%) were called active. The inconclusive results got no clear call from the source; some entries with a clear call stand among them for comparison. Calls follow the shape of the dose curve; as a rule, active = well fitted inhibition curve with a large enough effect; inconclusive = small, poorly fitted or top-dose-only effect; inactive = flat fitted curve, though single readings scatter. Potencies of inconclusive entries are doubtful fits and often do not repeat.

The compounds below were run against pyruvate kinase (Trypanosoma brucei) (UniProt Q57TT1) (assay: qHTS of Trypanosoma Brucei Inhibitors). Conditions: TbPYK enzyme, Kinase-Glo Plus ATP luminescence, 45 min; series mostly up to 76.8 µM.
Method in brief: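 Readout: single end-point luminescence (Kinase-Glo Plus, 10 min). Reaction conditions were TbPYK/substrate plus 130 uM ADP, 45 min at RT, pH 7.2 TEA buffer. No-enzyme wells served as controls, and data were normalized before concentration-response fitting.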
Also: nearly all actives have a fitted effect of over 50% in size.
Potency is read from the fitted curve at half-maximal effect; tags tell the direction and shape of the fitted curve.

Row | Structure (SMILES) | Potency
1 | COc1cc(C(c2nnnn2C(C)(C)C)N2CCN(c3nc4ccccc4s3)CC2)ccc1O (centres undefined) | inconclusive: 3.16 µM [inhibitor, full curve]
2 | C=CCc1c(C)[nH]c2c(OC)cccc2c1=S | inconclusive: 2.51 µM [inhibitor, full curve]
3 | CCC1NC(=O)c2ccccc2N1c1cccc(Cl)c1 (centres undefined) | inactive
4 | COc1cc2cc(/C=C/C(=O)c3ccco3)c(Cl)nc2cc1OC | inconclusive: 31.6 µM [inhibitor, single point]
5 | Cc1nn(-c2nc3ccccc3[nH]2)c(=O)c2ccccc12 | inconclusive: 22.4 µM [inhibitor, partial curve, poor fit]
6 | COc1cc(SC)ccc1C(=O)NNC(=O)c1cc(C)oc1C | inconclusive: 25.1 µM [inhibitor, partial curve]
7 | COc1cc(C2Nn3c(nnc3-c3ccccc3OC)S2)ccc1O (centres undefined) | inconclusive: 44.7 µM [inhibitor, partial curve, poor fit]
8 | O=[N+]([O-])c1cc2no[n+]([O-])c2cc1N1CCCCC1 | active: 14.1 µM
9 | CN(Cc1ccccc1)C(=S)NC(=O)c1ccccc1 | inactive
10 | CCS(=O)(=O)N1CCc2cc(C(=O)N3CCN(c4ccc(OC)cc4)CC3)ccc21 | inactive
11 | COc1cccc(-c2n[nH]c(=S)n2Cc2ccco2)c1 | inconclusive: 6.31 µM [inhibitor, partial curve, poor fit]
12 | CC(=O)Nc1ccc(C=CC=Cc2cccc([N+](=O)[O-])c2)cc1 | inconclusive: 39.8 µM [inhibitor, single point]
13 | O=C(CSc1nc2ccccc2nc1Cc1ccc(Cl)cc1)N1CCc2ccccc21 | inconclusive: 6.31 µM [inhibitor, single point]
14 | CCOC(=O)c1cc2c(=O)n3ccccc3nc2n(Cc2ccco2)c1=NC(=O)c1cccnc1 | inconclusive: 35.5 µM [inhibitor, partial curve]
15 | Cn1c(=O)c(=O)n(C)c2cc(N3CCOCC3)c(NS(=O)(=O)c3ccc(Cl)cc3)cc21 | inconclusive: 15.8 µM [inhibitor, partial curve]
16 | NC(=O)C1CCN(C(=S)c2ccc(-c3ccc(Br)cc3)o2)CC1 | inconclusive: 31.6 µM [inhibitor, partial curve, poor fit]
17 | Cn1cccc1/C=N/N1CCN(Cc2cccc3ccccc23)CC1 | inconclusive: 22.4 µM [inhibitor, partial curve]
18 | COC(=O)c1ccc(NC(=S)NC(=O)c2c(Cl)cnn2C)cc1 | inactive
19 | COc1ccc2oc3c(ccc[n+]3C)c(=O)c2c1 | inconclusive: 35.5 µM [inhibitor, single point]
20 | Cc1ccc(OCC(=O)N2CCCCCC2)c(C)c1 | inactive
21 | O=C(NCc1n[nH]c(=S)n1-c1ccc(Br)cc1)c1ccc(S(=O)(=O)N2CCCCC2)cc1 | inconclusive: 20 µM [inhibitor, partial curve, poor fit]
22 | COc1ccc(CN2C(=O)NC(=O)/C(=C\c3ccc(OC)c(OC)c3OC)C2=O)cc1 | inconclusive: 35.5 µM [inhibitor, partial curve, poor fit]

Row | Structure (SMILES) | Potency
23 | O=C(O)CCc1ccc(-c2cccs2)o1 | inconclusive: 31.6 µM [inhibitor, single point]
24 | CCOC(=O)CN1NC2(CCCCCCC2)NC1=S | inconclusive: 2.51 µM [inhibitor, full curve, poor fit]
25 | O=S(=O)(Nc1cccc(-c2ccc(N3CCCC3)nn2)c1)c1ccccc1C(F)(F)F | inactive
26 | O=C(/C=C/Nc1ccc(Br)cc1F)c1ccccc1 | inconclusive: 39.8 µM [inhibitor, single point]
27 | O=C1C=CC2(O[C@H](c3ccccc3)[C@@H](c3ccccc3)O2)[C@H](Sc2ccccc2O)C1 | inconclusive: 35.5 µM [inhibitor, partial curve, poor fit]
28 | COc1cc(/C=C2/C(=O)NC(=O)N(c3ccccc3)C2=O)ccc1O | inconclusive: 35.5 µM [inhibitor, single point]
29 | O=C(CSc1nnc(-c2ccccc2F)o1)NC1CC1 | inactive
30 | O=c1cc(N2CCOCC2)cnn1-c1ccccc1 | inactive
31 | CCCCC(C)n1[nH]c(=O)c2c(C)cc(C)nc21 (centres undefined) | inactive
32 | O=C1C=CC(=O)c2c(O)c(N3CCN(CCO)CC3)c(Cl)c(O)c21 | inconclusive: 50.1 µM [inhibitor, single point]
33 | N#Cc1ccccc1NC(=S)NC(=O)c1cccs1 | inactive
34 | CC(=O)c1c(C)nn(CCC(=O)O)c1C | inconclusive: 39.8 µM [inhibitor, partial curve, poor fit]
35 | Cc1ccc(Cc2c(-c3ccco3)nc3ccc(Cl)cn23)cc1 | active: 22.4 µM
36 | COc1cccc(C(c2sc3ncnn3c2O)N2CCc3ccccc3C2)c1 (centres undefined) | inconclusive: 28.2 µM [inhibitor, partial curve, poor fit]
37 | CN1CCc2c(sc3c2c(=O)n(-c2ccccc2)c2nnc(SCc4ccc(Cl)cc4)n32)C1 | inconclusive: 25.1 µM [inhibitor, single point]
38 | CCOc1ccc(C(C)=O)cc1N1C(=O)C2C3C=CC(O3)C2C1=O (centres undefined) | inconclusive: 31.6 µM [inhibitor, single point]
39 | CCOC(=O)[C@H]1[C@H]2COc3ccc(OC)cc3[C@@H]2N2C(=O)CN(Cc3ccc(OC)cc3)C(=O)[C@@]12C | inactive
40 | Fc1ccc(-n2[nH]nnc2=S)cc1N1CCCC1 | inconclusive: 28.2 µM [inhibitor, partial curve, poor fit]
41 | Cc1ccccc1Nc1nc(N)nc(CSc2nc3ccccc3c(=O)n2CCCO)n1 | inconclusive: 5.01 µM [inhibitor, partial curve, poor fit]
42 | COc1cccc(/C=C2/C(=O)NN(c3ccccc3)C2=O)c1 | inconclusive: 25.1 µM [inhibitor, single point]
43 | S=c1nc(-c2cccc(Br)c2)[nH][nH]1 | inconclusive: 31.6 µM [inhibitor, partial curve, poor fit]
44 | CCOc1ccc(-n2c(=O)c3sc4ccccc4c3n(Cc3cccc(C)c3)c2=O)cc1 | inactive
